# Screen size: about 410,000 compounds; about 1,200 (0.29%) were called active. Inconclusive results, whose numbers are uncertain, are shown with a selection of clear calls. Calls come from the whole dose curve; as a rule, active = well fitted activation curve with a large enough effect; inconclusive = small, poorly fitted or top-dose-only effect; inactive = flat fitted curve, though single readings scatter. Potencies beside an inconclusive call are fits to weak or partial responses and may not hold up.
# Test: qHTS of Nrf2 Activators; note: nearly all actives have a fitted effect of over 65% in size
# Conditions: AREc32 ARE-luciferase reporter (MCF7-derived line), luminescence, 24 h; series mostly up to 46.1 µM
# How it was run: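 Cells of the AREc32 ARE-luciferase line are plated in OPTI-MEM containing 5% FBS and left overnight at 37 deg C. Compounds are pinned in, incubation continues 24 hr, and firefly luciferase signal is then measured.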
# Potency is the fitted concentration of half-maximal effect; tags give direction and shape of the fitted curve.
row,SMILES,Potency
1,COc1ccc(-c2c(-c3ccccc3OC)sc3ccccc23)cc1C=O,"inconclusive: 11.2 µM [activator, partial curve, poor fit]"
2,S=c1[nH]c(-c2ccccc2)cn1/N=C/c1cccnc1,inactive
3,CCOc1ccc(CN(C(=O)/C=C/c2ccco2)C2CCS(=O)(=O)C2)cc1 (configuration not stated),inactive
4,O=C(Nc1ccc(S(=O)(=O)NCc2cccnc2)cc1)c1ccccc1Cl,inactive
5,COc1ccc(/C=C/C(=O)c2ccc3c(c2)OCO3)cc1OC,"inconclusive: 31.6 µM [activator, single point]"
6,O=C(/C=C/c1c(F)cccc1Cl)NCc1ccco1,"inconclusive: 25.1 µM [activator, single point]"
7,CCCCn1[nH]c(-c2ccccc2)cc1=O,"inconclusive: 22.4 µM [activator, single point]"
8,Cc1c(Cl)cccc1NC(=O)c1ccc2nc(C(C)C)oc2c1,inactive
9,C/C(=N\N=C(/N)SC1CC(=O)N(c2ccc(Cl)cc2)C1=O)c1cccs1 (configuration not stated),"inconclusive: 11.2 µM [activator, partial curve, poor fit]"
10,O=[N+]([O-])c1ccc(Sc2ncccn2)c([N+](=O)[O-])c1,"inconclusive: 5.62 µM [activator, single point]"
11,O=C(CSc1ncnc2ccccc12)c1ccco1,active: 2.82 µM
12,Cc1cccc(CS(=O)(=O)CC2Nc3ccc(C(=O)NCc4ccccc4Cl)cc3NC2=O)c1 (configuration not stated),inactive
13,Cc1cc(=O)oc2cc(NC(=O)c3ccccc3Cl)ccc12,active: 5.01 µM
14,COc1ccc(C(=O)c2sc3nc(C)cc(-c4cccs4)c3c2N)cc1,"inconclusive: 12.6 µM [activator, partial curve, poor fit]"
15,O=C(Nc1ccc(Cl)cc1)Nc1csc([N+](=O)[O-])c1,"inconclusive: 11.2 µM [activator, partial curve, poor fit]"
16,CCOC(=O)C1=C(Cc2ccc(Cl)cc2)C(=O)c2ccccc2C1=O,"inconclusive: 20 µM [activator, single point]"
17,CCS(=O)(=O)c1ncc(Cl)c(C(=O)N(Cc2ccccc2)Cc2ccco2)n1,"inconclusive: 5.62 µM [activator, single point]"
18,CCc1ncc(/C=C2\C(=O)Nc3ccccc32)[nH]1,"inconclusive: 15.8 µM [activator, single point]"
19,O=C(NC(=S)Nc1cccc2ncccc12)c1ccccc1,"inconclusive: 12.6 µM [activator, partial curve, poor fit]"
20,CCOn1c(=O)c(-c2cccc([N+](=O)[O-])c2)[n+]([O-])c2ccccc21,"inconclusive: 12.6 µM [activator, single point]"
21,Cc1cc(C(=O)Nc2sccc2C#N)c2ccccc2n1,"inconclusive: 17.8 µM [activator, single point]"
22,O=C(c1ccc(Cl)s1)N1CCc2ccccc21,"inconclusive: 8.91 µM [activator, partial curve, poor fit]"
23,Nc1ccc(C(=O)N/N=C/c2sc(N3CCOCC3)nc2-c2ccccc2)cc1,inactive
24,S=c1[nH]nc(-c2ccccc2Cl)n1/N=C/C=C/c1ccco1,"inconclusive: 11.2 µM [activator, partial curve, poor fit]"

row,SMILES,Potency
1,COc1cccc(N2CCN(c3ncccn3)CC2)c1,inactive
2,Cc1cc(C(=O)N(C)C2CCCCC2)no1,inactive
3,CCn1c(SCC(=O)c2cccs2)nnc1-c1cccs1,active: 22.4 µM
4,O=C1CCCN1c1ccc(S(=O)(=O)NCCOc2ccccc2)cc1,inactive
5,Cc1ccc(C)n1-c1nccc(-c2cccs2)n1,"inconclusive: 10 µM [activator, partial curve]"
6,O=[N+]([O-])c1cc(/C=N/n2c(-c3ccncc3)n[nH]c2=S)ccc1Cl,"inconclusive: 20 µM [activator, partial curve, poor fit]"
7,CC(C)(C)C(=O)Cn1ncc(Br)c(Br)c1=O,"inconclusive: 3.16 µM [activator, partial curve, poor fit]"
8,Clc1cccc(Cl)c1C[n+]1ccc2ccccc2c1,inactive
9,CSc1nnc(C)c(/C=C/Nc2ccc(Cl)cc2)n1,"inconclusive: 12.6 µM [activator, single point]"
10,O=C(CN1CCN(S(=O)(=O)N2CCCCC2)CC1)Nc1ccc(Br)cc1,inactive
11,O=[N+]([O-])C1=C(Nc2cccc3ccccc23)CS(=O)(=O)C1,"inconclusive: 31.6 µM [activator, single point]"
12,CCOc1ccc(Nc2c(S(=O)(=O)c3ccc(C)cc3)cnc3ccccc23)cc1,inactive
13,COc1ccc(/C=C2/CCCC(CN(C)C)C2=O)cc1 (configuration not stated),active: 10 µM
14,CCCc1cc(NC(=O)CCl)n(-c2ccccc2)n1,"inconclusive: 8.91 µM [activator, partial curve]"
15,O=[N+]([O-])c1cccc(-c2noc(-c3cccs3)n2)c1,"inconclusive: 2.82 µM [activator, full curve, poor fit]"
16,COc1ccc(C(=O)CSc2nn3c(=O)c(C(C)(C)C)nnc3s2)cc1,"inconclusive: 22.4 µM [activator, single point]"
17,O=C(Nc1ccccc1C(=O)NCCc1ccccc1)c1ccco1,active: 2.82 µM
18,COc1ccc2nc(C)cc(NCc3ccc(F)cc3)c2c1,inactive
19,Cc1nn(-c2ccccc2)c2c1C1(C(=O)N(C)c3ccccc31)C(C#N)=C(N)O2 (configuration not stated),"inconclusive: 28.2 µM [activator, partial curve, poor fit]"
20,O=C(OCC(=O)N1N=C(c2ccc(Cl)cc2)CC1c1ccco1)c1cccnc1 (configuration not stated),active: 20 µM
21,COC(=O)[C@H]1C[C@H](OC(=O)NC2CCCC2)[C@@]2(O)CN(S(=O)(=O)c3ccc(C)cc3)CC2[C@H]1C(=O)OC (some centres not stated),inactive
22,O=C(c1ccc([N+](=O)[O-])o1)N1CCCCCC1,"inconclusive: 17.8 µM [activator, single point]"
23,Cc1ccc(-n2[nH]c(C)c(C=Nc3ccc4[nH]c(=O)[nH]c4c3)c2=O)cc1,inactive

# Source: PubChem BioAssay AID624171 (National Center for Advancing Translational Sciences (NCATS), 2012)
